Results: PubChem BioAssay AID624296 (National Center for Advancing Translational Sciences (NCATS), 2012)
In all, about 350,000 compounds went through this assay and about 9,900 (2.8%) were called active. The inconclusive results got no clear call from the source; some entries with a clear call stand among them for comparison. Calls come from the whole dose curve; as a rule, active = well fitted activation curve with a large enough effect; inconclusive = small, poorly fitted or top-dose-only effect; inactive = no such curve, though single readings can be large or run the other way. No potency is given beside an inconclusive call; the fits are too rough.

test: A quantitative high throughput screen for small molecules that induce DNA re-replication in MCF 10a normal breast cells.; note: nearly all actives have a fitted effect of over 50% in size; details: MCF 10A DNA re-replication, Hoechst nuclear intensity, 48 h; series mostly up to 46.1 µM
Potency is the fitted concentration of half-maximal effect; tags give direction and shape of the fitted curve.

| SMILES | Potency |
| --- | --- |
| CC(C)CSc1nnc2c(n1)[nH]c1ccccc12 | inconclusive [activator, single point] |
| C=C(C)COc1ccc(-c2n[nH]c(C)c2-c2ccccc2OC)c(O)c1 | inconclusive [activator, single point] |
| COc1ccc(/C=C/C(=O)OCC(=O)Nc2c(C)cccc2C)cc1 | inconclusive [activator, single point] |
| Cc1nc(N/N=C/c2ccc(O)cc2O)cc(N2CCOCC2)n1 | inconclusive [activator, single point] |
| CCCNC(=O)Nc1cc(S(=O)(=O)CC)ccc1O | inactive |
| COc1ccccc1NC(=S)N/N=C/c1cccc(C)c1 | inconclusive [activator, single point] |
| Cc1csc(NC(=O)Cc2c[nH]c3ccccc23)n1 | inconclusive [activator, partial curve, poor fit] |
| O=C(OCc1ccccc1F)c1ccc2c(c1)-c1ccccc1C2=O | inconclusive [activator, single point] |
| CCC(=O)N(c1nnc(SCC(=O)Nc2ccccc2Cl)s1)C1CC1 | inactive |
| CCOc1ccc2nc(NCCNC(=O)CC)c(C#N)cc2c1 | inconclusive [activator, partial curve, poor fit] |
| COc1ccc(-c2csc3ncnc(NCCO)c23)cc1 | inactive |
| Cc1cccc(OCc2nnc(SCC(=O)N(C)C3CCCCC3)o2)c1 | inconclusive [activator, partial curve, poor fit] |
| Nc1cc(=O)[nH]c(SCc2csc(-c3ccccc3)n2)n1 | inconclusive [activator, partial curve, poor fit] |
| O=C(O)CC/C(=C/c1cccc(NC(=O)c2ccccc2Cl)c1)c1nc2ccccc2s1 | inconclusive [activator, single point] |
| O=C1CC(c2ccccc2)CC2=C1CN(C1CCCCC1)CN2 (centres undefined) | inconclusive [activator, full curve, poor fit] |
| Cc1n[nH]c(=S)n1/N=C/c1ccc(-c2ccc(Cl)cc2)o1 | inconclusive [activator, full curve, poor fit] |
| N=C1C=CC(=C(c2ccc(N)cc2)c2ccc(N)cc2)C=C1 | inconclusive [activator, partial curve, poor fit] |
| COc1ccc(C(=O)N2CCN(c3cccc(Cl)c3)CC2)c(OC)c1 | active: 18.4 µM |
| Cn1c(NCc2ccco2)nc2c1c(=O)n(Cc1ccc(Cl)cc1)c(=O)n2C | inconclusive [activator, partial curve, poor fit] |
| COc1ccc(-c2cc(-c3n[nH]c(=S)n3-c3cccc4ccccc34)[nH]n2)cc1 | inconclusive [activator, single point] |
| COc1ccccc1C(=O)NCC(=O)N/N=C/c1ccncc1 | inactive |
| Cc1cc(C=O)c(C)n1-c1ccc(NC2CCCCC2)c([N+](=O)[O-])c1 | inconclusive [activator, single point] |

| SMILES | Potency |
| --- | --- |
| CC(C)c1cc(NC(=O)CCl)on1 | inconclusive [activator, single point] |
| CCCCN(CCCC)Cc1cc2ccccc2c2c1COC2 | inconclusive [activator, partial curve, poor fit] |
| CCOC(=O)c1c(NC(=O)COC(=O)/C=C/c2ccco2)sc2c1CC(C)(C)NC2(C)C | inactive |
| O=[N+]([O-])c1ccc(N/N=C/c2ccc(OCc3cccc4ccccc34)cc2)nc1 | inconclusive [activator, partial curve, poor fit] |
| Cc1ccccc1NC(C)C(=O)N/N=C/c1ccccc1OCc1cccc(Br)c1 (centres undefined) | inconclusive [activator, single point] |
| CC(C)(C)C(C(=O)n1cccc1C#N)c1ccccc1 (centres undefined) | inactive |
| C[C@H](CO)N1C[C@H](C)[C@@H](CN(C)Cc2ccc(-c3ccccc3)cc2)Oc2c(NC(=O)Nc3ccc(C(F)(F)F)cc3)cccc2C1=O | inactive |
| COc1ccc(C(=O)NCC(=O)NCc2ccncc2)cc1 | inactive |
| COC(=O)c1cn(C(=O)/C=C/c2ccc(OC)c(OC)c2)c2ccccc12 | inconclusive [activator, full curve] |
| CCOC(=O)C1CCCN(S(=O)(=O)Cc2ccc(Cl)cc2)C1 (centres undefined) | inactive |
| CC(C)Oc1ccc(CNC2CCOC(C)(C)C2)cc1 (centres undefined) | inconclusive [activator, single point] |
| CN1CN(C)C(c2ccncc2)=C1c1ccncc1 | inactive |
| CN(C)/C=C/c1c([N+](=O)[O-])c2ccc(O)cc2n1-c1ccccc1 | inconclusive [activator, single point] |
| Cn1c(=O)c2c(nc(CN3CCCCC3)n2CCc2ccccc2)n(C)c1=O | inactive |
| CC(=O)Nc1ccc(OCC(O)CN2C(C)CCCC2C)cc1 (centres undefined) | inactive |
| Cc1ccc(NS(=O)(=O)c2ccc(-n3cccn3)cc2)cc1C | inactive |
| COc1ccc(Nc2nc(N)nc(CSCCO)n2)cc1 | inconclusive [activator, partial curve, poor fit] |
| Cc1ccn2c(/C=N/OCc3cccc(F)c3)c(-c3ccc(Cl)cc3)nc2c1 | inconclusive [activator, full curve, poor fit] |
| Cc1ccc(NC(=O)c2cc(S(=O)(=O)N3CCCCC3)cs2)cc1 | inconclusive [activator, partial curve] |
| COc1ccc(Cl)cc1NC(=O)CN(C)C(=O)c1cc2c(s1)CCC(C)C2 (centres undefined) | inconclusive [activator, partial curve, poor fit] |
| O=C(NNC(=S)Nc1ccccc1)c1cc(Br)ccc1Cl | inconclusive [activator, single point] |
| CCc1ccc(CCC(=O)Nc2ccc(C)cc2C)o1 | inconclusive [activator, partial curve, poor fit] |
